Experimental data from PubChem BioAssay AID463173 (ICCB-Longwood Screening Facility, Harvard Medical School, 2010).
The campaign covered roughly 52,000 compounds. About 4,300 (8.3%) were called active. Rule as the data show it: active = survival mostly below about 52% (no sharp cut-off); inactive = mostly above about 56%. Some of the results follow.

tested on: DeltatarO mutant; test: S. aureus survival, RN4220 and DeltatarO strains – OD600, teichoic acid synthesis inhibitors, primary screen (AID 463173); settings: S. aureus RN4220 wild type/DeltatarO growth, OD600, 18 h, hits give low values, screened at 18.75 µg/mL (by protocol)

SMILES | survival
CC(C)c1cnc2c(c1SCC(=O)Nc1ccc(OC(F)(F)F)cc1)c(=O)n(C)c(=O)n2C | inactive: 78%
O=C(c1cc(-c2cccc(Cl)c2)on1)N1CCN(c2ccccc2)CC1 | active: 23%
O=C(CCCN1C(=O)c2cccnc2Oc2ccc(Cl)cc21)NCc1ccccc1F | inactive: 75%
CCN(CC)CCOC(=O)c1ccc(NC(=O)c2nn(C)c3c2COc2ccccc2-3)cc1 | inactive: 60%
Cc1ccc(S(=O)(=O)C(CNC(=O)c2ccc(F)c(F)c2)c2ccco2)cc1 (centres undefined) | active: -5%
CCC(=O)C1=C(c2ccc(Cl)cc2)N(C(=O)CC)n2c(C)nnc2S1 | inactive: 108%
CCS(=O)(=O)c1ccc(O)c(Nc2cc(C)nc(SC)n2)c1 | inactive: 100%
O=C(CSc1oc(-c2ccco2)nc1S(=O)(=O)c1ccc(Br)cc1)c1ccccc1 | active: 47%
CCCCn1c(=O)c2oc3ccccc3c2n(Cc2cccc(F)c2)c1=O | inactive: 66%
Nc1cc(N)nc(SCC(=O)N2CCCCC2)n1 | inactive: 101%
CCC(C)Cn1c(/C=C/c2ccccc2)nc2ccccc21 (centres undefined) | active: -1%
CCOc1ccc(-c2nonc2NC(=O)c2oc3cc(C)c(C)cc3c2C)cc1OCC | active: 43%
Cc1ccc(C)c(-n2c3nc(=O)[nH]c(=O)c-3cc3c(C)nn(-c4ccccc4)c32)c1 | inactive: 92%
COc1cccc(CNS(=O)(=O)c2cc3[nH]c(=O)c(=O)[nH]c3cc2C)c1 | inactive: 67%
CCc1ccc(NC(=O)c2ccc(F)c(S(=O)(=O)N3CCC4(CC3)OCCO4)c2)cc1 | inactive: 84%
CCc1ccc(N2CCn3c2nc2c3c(=O)n(C/C=C/c3ccccc3)c(=O)n2C)cc1 | inactive: 71%
Cc1ccc(CNC(=O)CC(C)CC2=NS(=O)(=O)c3ccccc3N2)cc1 (centres undefined) | inactive: 84%
COc1ccc(NC(=O)c2c(NCc3ccc(N(C)C)cc3)sc3c2CCC3)cc1 | inactive: 76%
O=C(CC1CCCCC1)NCc1ccco1 | inactive: 69%
Cc1ccsc1CN(C(=O)c1oc2ccc(F)cc2c1C)C1CCS(=O)(=O)C1 (centres undefined) | inactive: 69%
CCOc1ccccc1NC(=O)N(Cc1ccc(F)cc1)C1CCN(CC)CC1 | inactive: 60%
Cc1cccc(CCNc2ncnc3onc(-c4ccc(Cl)cc4)c23)c1 | active: 33%
Cc1[nH]c2ccc(-c3nnc(SCC(=O)N4CCCC4)o3)cc2c1C | inactive: 83%

SMILES | survival
COC(=O)c1ccc(NC(=O)CN(CCc2ccccc2)S(=O)(=O)c2ccc(OC)cc2)cc1 | inactive: 69%
Cc1cccc(Cn2nc(C)n3c(cc4cc(C)ccc43)c2=O)c1 | inactive: 84%
COc1ccc2o/c(=N\O)c(C(N)=O)cc2c1 | inactive: 117%
CCc1ccc2oc(C(=O)Nc3c(C)n(C)n(-c4ccccc4)c3=O)cc(=O)c2c1 | inactive: 97%
Cc1ccccc1Cn1c2ccccc2c2cnn(CC(=O)NC(C)CCc3ccccc3)c(=O)c21 (centres undefined) | inactive: 76%
CCOC(=O)c1ccc(N2C(=O)c3n[nH]c(C)c3C2c2ccccc2OC)cc1 (centres undefined) | inactive: 98%
N#Cc1ccc(C(=O)NCc2ccc3c(c2)CCN3C(=O)c2ccc(F)cc2)cc1 | inactive: 83%
Cc1oc(-c2cccc(Cl)c2)nc1CS(=O)(=O)CC(=O)NCc1ccccc1Cl | inactive: 49%
CCCOc1ccc(C(=O)Nc2cc3c(cc2N2CCOCC2)n(C)c(=O)n3C)cc1 | inactive: 140%
Cc1cccc(N2C(=O)C(CC(=O)Nc3ccc(Cl)cc3)N(Cc3ccco3)C2=O)c1 (centres undefined) | inactive: 101%
Cc1cccc(-n2c(=O)c3c(c4cc(C)ccc4n3C)n(CC(=O)NCC3CCCO3)c2=O)c1 (centres undefined) | inactive: 68%
Cc1oc2ccc(O)c(CN3CCN(C)CC3)c2c1C(=O)Nc1cccc(Cl)c1C | inactive: 81%
Cc1ccc2c(c1)c(=O)c1ccccc1n2CCCC(=O)Nc1cc(Cl)ccc1C | inactive: 113%
COc1ccc2c(CNCc3cccs3)c(C(=O)O)n(Cc3ccc(C)cc3)c2c1 | inactive: 77%
Cc1nn(CC(=O)O)c(=O)c2cc3cc(F)ccc3n12 | inactive: 119%
COc1ccccc1NC(=O)c1cc(S(=O)(=O)N2CCN(c3ccccc3Cl)CC2)ccc1F | inactive: 102%
O=C(Nc1cc(Cl)cc(Cl)c1)c1ccc2c(c1)N(Cc1cccc(Cl)c1)C(=O)c1ccccc1S2=O (centres undefined) | inactive: 76%
COC(=O)c1ccc(C2c3c(oc4ccccc4c3=O)C(=O)N2c2nc(C)c(C(=O)OC)s2)cc1 (centres undefined) | inactive: 71%
Cc1ccc(C)c(N2CCN(c3ccc4cc(S(=O)(=O)N5CCC(C)CC5)ccc4n3)CC2)c1 | inactive: 85%
Cc1ccc(C)c(N2CCN(C(=O)c3cc(C)nc4c3c(C)nn4-c3cccc(F)c3)CC2)c1 | active: 8%
CCn1c(C(=O)NCc2ccc(OC(C)C)cc2)cc2oc3ccccc3c21 | active: 33%
CC1CCC(C(C)C)C(OC(=O)Cn2nnc3c(cnn3-c3ccccc3)c2=O)C1 (centres undefined) | inactive: 70%
CN1C=CC=C/C1=C1\SC(=S)N(C2CCCCC2)C1=O | inactive: 78%

SMILES | survival
CCOc1ccc(-n2c(SCC(=O)N3CCC(C)CC3)nc3c([nH]c4ccccc43)c2=O)cc1 | inactive: 72%
CCOc1ccccc1CNC(=O)c1ccc(N2Cc3ccccc3Oc3ncccc32)s1 | inactive: 83%
Cc1cc(C)c(C#N)c(SCc2cccnc2)n1 | inactive: 53%
Cc1ccc(N2C(=O)NC(NS(=O)(=O)c3ccccc3)(C(F)(F)F)C2=O)cc1C (centres undefined) | inactive: 65%
Cc1cccc(NC(=O)N2CCN(C(=O)c3nsc4ccccc34)CC2)c1C | inactive: 88%
COc1cccc(NC(=O)CN2C(=O)CSc3ccc(S(=O)(=O)N4CCCC4)cc32)c1 | inactive: 111%
Cc1ccc2c(CC(=O)Nc3ccc(S(=O)(=O)N4CCCCC4C)cc3)coc2c1 (centres undefined) | inactive: 75%
Cc1ccc(CNC(=O)c2cccn2-c2nnc(N3CCCC3)s2)cc1 | inactive: 70%
Cc1cc(N2CCCCC2)nc2ccc(NC(=O)/C=C/c3ccc(OC(C)C)cc3)cc12 | inactive: 50%
Cc1ccc(NC(=O)c2cnc(N3CCCCC3)c3ccccc23)c(C)c1 | inactive: 92%
COCCCNC(=O)C1CCN(C(=O)c2cnn(-c3ccccc3)c2-n2cccc2)CC1 | inactive: 90%
CCCN1CCN(C(=O)Cn2c(-c3cccs3)cc3ccccc32)CC1 | inactive: 95%
COC(=O)c1c(Oc2ccc(OC)cc2)nnc(-c2ccccc2)c1-c1ccccc1 | inactive: 101%
CCCCOc1ccc(C2=NC(c3cccs3)=Nc3ccc(CC)cc3N2)cc1 | inactive: 87%
CC(C)CC(=O)Nc1nc2nc(-c3ccccc3)cc(=O)n2[nH]1 | inactive: 72%
CCOc1ccc(C(=O)Nc2nnc(S(=O)(=O)Nc3ccccc3)s2)cc1 | active: 34%
CCOc1cc2[nH]c(=O)n(CCCCC(=O)N3CCN(c4ccc(OC)cc4)CC3)c(=O)c2cc1OCC | inactive: 72%
Cc1ccc(CNC(=O)CCc2c(C)c3ccc(O)c(C)c3oc2=O)cc1 | inactive: 76%
CSc1cccc(Nc2cc(C(=O)NCCc3ccc(Cl)cc3)c3ccccc3n2)c1 | inactive: 103%
CC1CN(C(=O)N2CCC(C(=O)N3CCN(c4ccccc4)CC3)CC2)c2cc(Cl)ccc2O1 (centres undefined) | inactive: 52%
Cc1ccc2[nH]c(C)cc(=S)c2c1 | active: 45%
Clc1ccc2c(c1)-c1c(cnc3cc(-c4ccccc4)nn13)CO2 | inactive: 62%
COc1ccc(N2CCN(C(=O)c3cnn(-c4ccc(F)cc4)c3-n3cccc3)CC2)cc1 | inactive: 79%

SMILES | survival
COC(=O)COc1ccc2oc(-c3ccc(OC)cc3)cc(=O)c2c1 | active: 36%
CCC1CCCCN1CCCNC(=O)CN1C(=O)c2cccnc2Oc2ccc(C)cc21 (centres undefined) | inactive: 78%
O=C(Nc1ccc(Br)cc1F)C1CCN(c2nc3ccccc3[nH]2)CC1 | inactive: 102%
CCOC(=O)N1CCN(C(=O)c2c(C)nn(-c3cccc(C)c3)c2-n2cccc2)CC1 | active: 20%
COc1ccccc1CNS(=O)(=O)c1ccc2c(c1)CC(=O)N2C | inactive: 105%
COC(=O)c1sc2ncccc2c1-n1c(C)ccc1C | inactive: 91%
Cc1cc(Br)c2c3c(c(N)c(=O)[nH]c13)-c1ccccc1C2=O | inactive: 78%
CCn1c(SCC(=O)NC(C)(C)C)nnc1-c1cccc(C)c1 | inactive: 66%
Cc1ccc(C)c(N2CCN(C(=O)CCS(=O)(=O)c3cc4c(cc3Cl)NC(=O)CO4)CC2)c1 | inactive: 81%
O=C(NCc1ccc2c(c1)CCN2C(=O)c1ccccc1)c1ccccc1 | inactive: 79%
Cc1ccc2oc3c(c(=O)c2c1)C(c1ccccc1F)N(CCCN(C)C)C3=O (centres undefined) | inactive: 73%
CCOc1ccccc1NC(=O)C(CC)Sc1nc2ncccc2[nH]1 (centres undefined) | inactive: 67%
CCCSc1nnc2c(n1)OC(c1ccc(Br)s1)Nc1ccccc1-2 (centres undefined) | inactive: 53%
COc1ccc(-n2ncc3c2ncn2nc(COc4ccc(Cl)cc4)nc32)cc1 | inactive: 113%
COc1ccc(CNC(=O)C2=C(C)C(=O)OC23CCCCC3)cc1 | inactive: 82%
Cc1oc2c(cc(NS(=O)(=O)c3ccc(C(C)C)cc3)c3ccccc32)c1C(=O)O | active: 42%
CC(=O)Nc1ccc(S(=O)(=O)N2CCC(c3nnc(-c4ccc(C)cc4)o3)CC2)cc1 | inactive: 67%
CC(C)C(=O)N1c2nc(-c3ccco3)nn2C2(CCCCC2)[C@@H]2CCCC[C@@H]21 | inactive: 64%
CCOC(=O)c1ccc2[nH]c3c(c2c1)CCCCC3=O | inactive: 93%
CCN(CC)C(=O)c1sc2c(c1C)c(=O)n(-c1ccc(Cl)c(Cl)c1)c(=O)n2Cc1cc(=O)n2ccccc2n1 | inactive: 112%
